Source: the supplement of paper PMC5499739
In all, about 16,000 sequences were measured (“Z-score”: median about -0.37, highest 2% from about 3.2 on). This is one part of the list.

Each sequence was assayed on RBM10 RRM1-ZnF (GST-tagged construct) (assay: RNAcompete 7-mer binding Z-score; higher = stronger binding preference).
Outline: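 GST-tagged RBM10 constructs (20 pmol) and a designed pool of 241 399 RNAs up to 41 nt (1.5 nmol) were allowed to bind for 30 min at 4°C in 1 ml Hepes pH 7.8 buffer with glutathione Sepharose beads. After four 2-min washes at 4°C, bound RNA was identified by microarray hybridisation. Enrichment was scored per heptamer motif as a one-sided Z-score across the probes containing it.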

Sequence	RNAcompete 7-mer binding Z-score
UCGACAA	-0.526
AUCAAAU	-0.766
GCUACGU	-0.22
GAGACCA	-0.126
CUCAUUC	-0.889
UGGGGCG	2.54
CUGCAUU	-0.642
GGUAUUC	0.183
GAAAUCU	-0.542
CCUAAUC	-0.821
GCACACU	-0.295
AUAAAAC	-0.532
CAAGCCC	-0.779
AAAACCG	-0.626
AAAUAAG	0.163
CGGCAUC	-0.246
GGCGCAC	0.0528
UAUGUGC	-0.00571
CAUGUCC	-0.785
AACCCAA	-0.714
ACAACUU	-0.772
UUUGCAU	-0.707
UGGGCUA	1.36

Sequence	RNAcompete 7-mer binding Z-score
UGUCGAA	-0.412
UCGACAG	-0.428
GGAAGAA	2.04
CGUUCUC	-0.688
UGUUGCA	-0.305
AAACAUC	-0.636
ACUCUGA	-0.73
ACUGCCA	-0.714
AGAGUAG	1.19
AUGUACC	-0.409
GCGACAC	-0.175
UAGGGGG	3.97
GCCUGCC	-0.123
UCACUGU	-0.522
UCUGAAG	-0.545
UGCCUAU	-0.668
UUCCACU	-0.798
GCCUCGG	-0.0479
ACAUUUC	-0.899
GAGAGCU	0.55
AACAUGA	-0.298
CCAGUGA	-0.438
AACGUGC	-0.181

Sequence	RNAcompete 7-mer binding Z-score
CUGCCGC	-0.642
GACGUGC	-0.201
AUGAUAG	0.794
ACGGAUA	1.61
GACAAGU	0.0885
CUACGAA	-0.389
UUCACAG	-0.617
CUCUAAU	-0.694
GCCGUCC	-0.444
AUAAGCA	-0.152
ACGCGGA	0.498
UACAUAU	-0.509
GUACUAG	0.108
AUGUUGU	-0.162
AAGUACA	-0.0577
UUCAGUC	-0.604
GGGUAUC	2.04
CGGGGUA	3.2
GAAGCAC	-0.113
AUUUGCU	-0.769
CGUUCUU	-0.737
AAGAGCA	0.303
CGACUUA	-0.642

Sequence	RNAcompete 7-mer binding Z-score
GUAGACU	-0.136
CUCCGAG	-0.652
CACGUUC	-0.743
CGAUCGC	-0.548
UGGUUUC	0.625
CACCGUU	-0.704
UUUCAUG	-0.558
CUACAGG	0.378
UAUUAUU	-0.61
CCCGCCG	-0.399
AGUUCAU	-0.535
GACUCCA	-0.672
AUCUAGC	-0.698
UGUCCUU	-0.672
AUACGAG	-0.184
AUGUCGG	0.446
CGAGUCC	-0.675
AAAUAUC	-0.552
AAGCAGG	2
GUUAACG	0.498
AACUGAA	-0.34
CAAGACA	-0.21
CUAUCUG	-0.805
